Among all 43,000 compounds or so, about 200 (0.47%) were called active. About 12% were inconclusive and are not listed. Calls come from the whole dose curve; as a rule, active = well fitted cell-killing curve with a large enough effect; inconclusive = small, poorly fitted or top-dose-only effect, or effect the other way; inactive = flat fitted curve, though single readings scatter. The list shows a part of the results.
experiment: Cell viability qHTS assay in S16 Pmp22-F2sN cells; settings: S16 Pmp22-F2sN Schwann cells (luciferase reporters placed in the Pmp22 gene) viability, CellTiter-Glo, 24 h; series mostly up to 57.5 µM; activity change, negative = cytotoxicity: at the top concentration; note: nearly all actives have a fitted effect of over 65% in size
Outline: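 Rat S16 Schwann reporter line, 24 h treatment with library compounds delivered at 23 nL per well. Cell viability by CellTiter-Glo luminescence.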
% is set by controls: 0 for no effect and ±100 for the full control effect.

| SMILES | activity change, negative = cytotoxicity |
| --- | --- |
| CCOC(=O)c1c(C)[nH]c(C)c1S(=O)(=O)N(C)CC(=O)Nc1ccc(OC)cc1 | inactive: -26.5% |
| COc1ccc(CC(=O)Nc2c(C(=O)N3CCN(c4ccccc4)CC3)oc3ccccc23)cc1OC | inactive: -3.59% |
| Cn1c(=O)c2nc(SCC(=O)Nc3ccc(OC(F)(F)F)cc3)n(C)c2n(C)c1=O | inactive: -2.04% |
| COc1cc(OC)cc(-c2cc3nc(C)c(CCC(=O)NCCc4cccc(C)c4)c(C)n3n2)c1 | inactive: -17.6% |
| COc1cc(NC(=O)Cn2nc(C(F)(F)F)c3c2CCC3)cc(OC)c1OC | inactive: -9.56% |
| O=C(CCn1c(=O)c2ccccc2n(CC(=O)Nc2cccc(F)c2)c1=O)NCCc1ccccc1 | inactive: 7.5% |
| COC(=O)Cn1c(C2CC(=O)N(c3c(C)cccc3C)C2)nc2ccccc21 (stereo not given) | inactive: 8.09% |
| Cc1cc(NC(=O)CCc2nc3cccnc3n2-c2ccccc2)ccc1Br | inactive: 7.38% |
| O=C(CCNS(=O)(=O)c1ccc2c(c1)CCCC(=O)N2)Nc1cccc(Cl)c1 | inactive: 1.51% |
| O=C(NCCc1ccccc1)c1ccc(CS(=O)Cc2ccc(Cl)cc2)o1 (stereo not given) | inactive: 12.1% |
| COc1ccc(C(=O)c2c(N)c(-c3nc(-c4ccc5c(c4)OCO5)cs3)c3ccccn23)cc1 | inactive: 13.1% |
| O=C(Nc1ccc(F)cc1F)C1CCN(c2ncccn2)CC1 | inactive: 5.28% |
| O=S(=O)(c1ccc(C2CCCCC2)cc1)N1CCN(c2ccc(Cl)c(Cl)c2)CC1 | inactive: 18.5% |
| CC(=O)Nc1ccc(NC(=O)c2oc3c(c2C)-c2nn(Cc4ccccc4Cl)cc2CC3)cc1 | inactive: 16.9% |
| CCCCC(=O)Nc1ccc2nc(SCC(=O)N3CCc4ccccc43)sc2c1 | inactive: 14.2% |
| Cc1cccc(NC(=O)Cn2nc(-c3ccccc3)c3cnc4ccccc4c32)c1 | inactive: -1.09% |
| CCOc1ccc(-n2cc(-c3ccccc3)c3c(NCCc4ccccc4)ncnc32)cc1 | inactive: -20.6% |
| CCc1cccc(NC(=O)CCn2c(=O)c3cccn3c3cccnc32)c1 | inactive: 14.2% |
| Cc1ccc(Nc2ccc3cc(S(=O)(=O)N4CCC(C)CC4)ccc3n2)c(Cl)c1 | inactive: 1.28% |
| CCOC(=O)N1CCc2c(sc3c2c(=O)n(Cc2ccccc2)c(=O)n3CC(=O)Nc2cccc(CC)c2)C1 | inactive: 6.82% |

| SMILES | activity change, negative = cytotoxicity |
| --- | --- |
| O=C(CCn1c(=O)c2sccc2n(Cc2ccccc2F)c1=O)NCc1ccc2c(c1)OCO2 | inactive: -20.4% |
| COC(=O)c1ccccc1NC(=O)c1cc(-c2ccccc2O)no1 | inactive: -25.5% |
| CC(=O)Nc1nonc1-c1nnc(SCC(=O)Nc2ccc(C)cc2)n1-c1ccccc1 | inactive: -10.3% |
| CCOC(=O)c1sc2cccc(F)c2c1S(=O)(=O)NCc1ccccc1Cl | inactive: 16.1% |
| O=C(CS(=O)(=O)c1cccc2nsnc12)N1CCN(c2cccc(Cl)c2)CC1 | inactive: -14.9% |
| COc1ccc(NC(=O)CN2C(=O)CCn3nc(-c4cccn4C)cc32)cc1Cl | inactive: 6.6% |
| O=S(=O)(c1ccc(-c2cc(C(F)(F)F)on2)s1)N1CCN(c2ccccc2F)CC1 | inactive: 1.81% |
| Cc1cccc(NC(=O)Cn2nnc(-c3nc(-c4ccncc4)no3)c2N)c1 | inactive: -1.85% |
| Cc1ccc(NC(=O)CN2C(=O)c3ccccc3Sc3ccc(C(=O)N4CCOCC4)cc32)cc1F | inactive: 0.434% |
| COc1cccc(N2CCN(C(=O)c3ccc(C)c(NC(=O)c4nsc5ccccc45)c3)CC2)c1 | inactive: -11.8% |
| Cc1ccc(N(CC(=O)NCCc2ccc(Cl)cc2)S(=O)(=O)c2c(C)noc2C)cc1 | inactive: 5.49% |
| Cc1ccc(C(c2sc3nc(-c4ccco4)nn3c2O)N2CCCC2)cc1 (stereo not given) | inactive: 21.5% |
| CCc1cccc(NC(=O)COC(=O)c2cn(CC)c3nc(C)ccc3c2=O)c1 | inactive: 19% |
| COc1ccc(CNC(=O)c2ccc(-c3nc(CSc4ccccc4)c(C)o3)cc2)cc1OC | inactive: -1.36% |
| COc1ccc(CNC(=O)CSCc2nc(-c3ccccc3C)oc2C)cc1 | inactive: -13.9% |
| CCCc1cc(=O)[nH]c(SCC(=O)N2CCN(c3ccccc3)CC2)n1 | inactive: 6.45% |
| CCc1ccc(-n2c(=O)c3c4c(sc3n(CC(=O)c3ccc(F)cc3)c2=O)CCC4)cc1 | inactive: -18.7% |
| COc1ccc(-c2ccc3c(N)c(C(=O)c4ccc(OC)c(OC)c4)sc3n2)cc1 | inactive: -0.62% |
| CCC(C)NC(=O)CCCN1C(=O)CCn2nc(-c3cccn3C)cc21 (stereo not given) | inactive: 4.73% |
| CC(C)c1nn2c(=O)cc(COC(=O)c3ccc(NC(=O)COc4ccccc4)cc3)nc2s1 | inactive: 7.47% |

| SMILES | activity change, negative = cytotoxicity |
| --- | --- |
| Cc1cc(C)c(Cn2c3ccccc3c3cnn(CC(=O)NCc4cccs4)c(=O)c32)c(C)c1 | inactive: 4.38% |
| Cc1ccccc1CNC(=O)c1ccc2c(c1)c(C)c(C)n2C | inactive: -0.631% |
| CN(C)c1ccc(CNC(=O)c2ccc(Cn3c(SCc4ccccc4)nc4cccnc43)cc2)cc1 | inactive: -14.5% |
| Cc1ccc(Cl)cc1NC(=O)C1CCN(c2nnc(C)c3c(C)n(-c4ccccc4)nc23)CC1 | inactive: 1.53% |
| CCc1ccc(CNC(=O)c2cnc3sc(N4CCCC4)nn3c2=O)cc1 | inactive: -0.72% |
| CCS(=O)(=O)N1CCCC(C(=O)NCCOC)C1 (stereo not given) | inactive: -2.72% |
| Cc1ccc(NC(=O)CSc2nnc(-c3ccc([N+](=O)[O-])cc3)o2)c(C)c1 | inactive: 0.66% |
| Cc1ccc(C(=O)c2cn(CC(=O)Nc3ccc(C(C)C)cc3)c3nc(C)ccc3c2=O)cc1 | inactive: -1.45% |
| CCOc1ccc(C(=O)Cn2c(=O)n3nc(CCn4nc(C)cc4C)nc3c3cc(OC)c(OC)cc32)cc1 | inactive: 0.64% |
| Cc1ccccc1N1CCN(S(=O)(=O)c2nnc(NC(=O)c3ccc(C(C)C)cc3)s2)CC1 | inactive: -6.72% |
| COc1cc(NC(=O)c2cc(C3CC3)nc3c2c(C)nn3-c2ccccc2)cc(OC)c1 | inactive: -18.6% |
| Cc1ccccc1NC(=O)CC(NCc1cccnc1)C(=O)O (stereo not given) | inactive: 14.2% |
| Cc1cc(C)cc(NC(=O)Cn2c(-c3cncs3)nc3ccccc32)c1 | inactive: 19.6% |
| Cc1cc(C)n(-c2nc3ccccc3nc2Nc2ccc(N(C)C)cc2)n1 | inactive: 2.43% |
| COc1ccccc1OC(C)C(=O)Nc1cccc(-c2nc3ccccc3s2)c1 (stereo not given) | inactive: -13% |
| COc1ccc(-n2nc(C(=O)Nc3ccccn3)c3c4ccccc4n(C)c3c2=O)cc1 | inactive: 17.8% |
| CCOC(=O)c1ccc(NC(=O)c2cnc3c(-c4ccc(F)cc4)c(C)nn3c2C)cc1 | inactive: -17.4% |
| CCOc1ccc(-c2nc3c(c(SCC(=O)Nc4ccccc4C)n2)Cc2ccccc2O3)cc1 | inactive: 0.712% |
| COCCCNc1nc(NCc2ccccc2OC)c2cnn(C)c2n1 | inactive: -0.283% |
| COc1ccc(Br)cc1C1C(C(=O)Nc2ccc(C)cc2C)=C(C)Nc2ncnn21 (stereo not given) | inactive: 26.2% |

— PubChem BioAssay AID1508642 (National Center for Advancing Translational Sciences (NCATS), 2021)
